Data from the supplement of paper PMC12067230.
This is a noisy data set.

Assay: amyloid nucleation score relative to library mode (yeast Sup35 reporter selection) (log enrichment difference); higher = more amyloid nucleation; sequences are the first 22 residues of the Bri2 peptide extended by up to 12 random residues
Details: random library (experiment): 1;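 active = nucleation score significantly above 0 at FDR 0.05; inactive = not significantly above 0 or absent from output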
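Note: [psi-pin-] Saccharomyces cerevisiae expressing SupN fusions, induced by 100 µM Cu2SO4, selected 7 d at 30 °C without adenine and uracil, scored by deep sequencing of output versus input.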

**Q.** With EASNCFAIRHFENKFAVETLICGIVLTGVKPRWP as the sequence, how does the amyloid nucleation score read?
**A.** The amyloid nucleation score was 2.42.

**Q.** Which amyloid nucleation score does the source give for EASNCFAIRHFENKFAVETLICGCVYGGGWGWCW here?
**A.** Its amyloid nucleation score is 6.95.

**Q.** For EASNCFAIRHFENKFAVETLICNGSSVGAQELVW, which amyloid nucleation score is on record?
**A.** Its amyloid nucleation score is “inactive”.

**Q.** For EASNCFAIRHFENKFAVETLICRSSSRSGWSAWN, which amyloid nucleation score is on record?
**A.** The amyloid nucleation score was 3.77.

**Q.** With EASNCFAIRHFENKFAVETLICLLVCTYICRG as the sequence, how does the amyloid nucleation score read?
**A.** Its amyloid nucleation score is 0.0198.

**Q.** For EASNCFAIRHFENKFAVETLICGLLSGSG, which amyloid nucleation score is on record?
**A.** Its amyloid nucleation score is “inactive”.

**Q.** For EASNCFAIRHFENKFAVETLICLFQG, which amyloid nucleation score is on record?
**A.** The amyloid nucleation score was 7.47.

**Q.** Which amyloid nucleation score does the source give for EASNCFAIRHFENKFAVETLICWIWRWLPGMRAG here?
**A.** The amyloid nucleation score was “inactive”.

**Q.** With EASNCFAIRHFENKFAVETLICRSEPQDCPVMVG as the sequence, how does the amyloid nucleation score read?
**A.** The amyloid nucleation score was “inactive”.

**Q.** For EASNCFAIRHFENKFAVETLICGYVKSFSMVLWV, which amyloid nucleation score is on record?
**A.** Its amyloid nucleation score is “inactive”.

**Q.** With EASNCFAIRHFENKFAVETLICVPSTL as the sequence, how does the amyloid nucleation score read?
**A.** The amyloid nucleation score was “inactive”.

**Q.** Which amyloid nucleation score does the source give for EASNCFAIRHFENKFAVETLICRFFVARMEECAE here?
**A.** The amyloid nucleation score was “inactive”.

**Q.** For EASNCFAIRHFENKFAVETLICCGRVTNWNDACP, which amyloid nucleation score is on record?
**A.** Its amyloid nucleation score is 8.04.

**Q.** With EASNCFAIRHFENKFAVETLICTMYSQDYTGLRQ as the sequence, how does the amyloid nucleation score read?
**A.** The amyloid nucleation score was 1.92.

**Q.** With EASNCFAIRHFENKFAVETLICATTHMPDKGANT as the sequence, how does the amyloid nucleation score read?
**A.** Its amyloid nucleation score is “inactive”.

**Q.** With EASNCFAIRHFENKFAVETLICWGTAKRQVVWWL as the sequence, how does the amyloid nucleation score read?
**A.** Its amyloid nucleation score is “inactive”.

**Q.** Which amyloid nucleation score does the source give for EASNCFAIRHFENKFAVETLICTLDL here?
**A.** Its amyloid nucleation score is “inactive”.

**Q.** For EASNCFAIRHFENKFAVETLICIIFSGYMMRSPG, which amyloid nucleation score is on record?
**A.** Its amyloid nucleation score is “inactive”.

**Q.** With EASNCFAIRHFENKFAVETLICADLDCFAPLVQG as the sequence, how does the amyloid nucleation score read?
**A.** The amyloid nucleation score was “inactive”.

**Q.** With EASNCFAIRHFENKFAVETLICENRRARPSSGGC as the sequence, how does the amyloid nucleation score read?
**A.** The amyloid nucleation score was “inactive”.

**Q.** For EASNCFAIRHFENKFAVETLICYLVNANFGYLSS, which amyloid nucleation score is on record?
**A.** Its amyloid nucleation score is 3.64.

**Q.** With EASNCFAIRHFENKFAVETLICLHLWWYHVMDRN as the sequence, how does the amyloid nucleation score read?
**A.** The amyloid nucleation score was “inactive”.

**Q.** For EASNCFAIRHFENKFAVETLICGSSCSCR, which amyloid nucleation score is on record?
**A.** Its amyloid nucleation score is “inactive”.

**Q.** For EASNCFAIRHFENKFAVETLICDTFTNELLRMPG, which amyloid nucleation score is on record?
**A.** Its amyloid nucleation score is -0.876.

**Q.** For EASNCFAIRHFENKFAVETLICRSWGVGSSRPHW, which amyloid nucleation score is on record?
**A.** The amyloid nucleation score was “inactive”.

**Q.** Which amyloid nucleation score does the source give for EASNCFAIRHFENKFAVETLICWYVARCRSSVAW here?
**A.** Its amyloid nucleation score is “inactive”.

**Q.** For EASNCFAIRHFENKFAVETLICPLLQNIPYRVT, which amyloid nucleation score is on record?
**A.** Its amyloid nucleation score is 0.

**Q.** For EASNCFAIRHFENKFAVETLICYSASSMGGDICV, which amyloid nucleation score is on record?
**A.** The amyloid nucleation score was “inactive”.

**Q.** For EASNCFAIRHFENKFAVETLICRLGVTAVKGWLW, which amyloid nucleation score is on record?
**A.** The amyloid nucleation score was “inactive”.

**Q.** Which amyloid nucleation score does the source give for EASNCFAIRHFENKFAVETLICANMTCNIYIAMW here?
**A.** Its amyloid nucleation score is “inactive”.

**Q.** With EASNCFAIRHFENKFAVETLICLTVV as the sequence, how does the amyloid nucleation score read?
**A.** Its amyloid nucleation score is “inactive”.

**Q.** Which amyloid nucleation score does the source give for EASNCFAIRHFENKFAVETLICHERNT here?
**A.** Its amyloid nucleation score is “inactive”.

**Q.** With EASNCFAIRHFENKFAVETLICARVEVRWQFLGG as the sequence, how does the amyloid nucleation score read?
**A.** The amyloid nucleation score was 0.514.

**Q.** Which amyloid nucleation score does the source give for EASNCFAIRHFENKFAVETLICMIDCGCITYVGL here?
**A.** The amyloid nucleation score was “inactive”.

**Q.** For EASNCFAIRHFENKFAVETLICPLLQYIRGSWMR, which amyloid nucleation score is on record?
**A.** The amyloid nucleation score was “inactive”.

**Q.** For EASNCFAIRHFENKFAVETLICIGMADRVRGAWR, which amyloid nucleation score is on record?
**A.** The amyloid nucleation score was 3.51.

**Q.** With EASNCFAIRHFENKFAVETLICTD as the sequence, how does the amyloid nucleation score read?
**A.** Its amyloid nucleation score is “inactive”.

**Q.** With EASNCFAIRHFENKFAVETLICFCLQSV as the sequence, how does the amyloid nucleation score read?
**A.** The amyloid nucleation score was 6.72.

**Q.** For EASNCFAIRHFENKFAVETLICNSGSVG, which amyloid nucleation score is on record?
**A.** The amyloid nucleation score was “inactive”.

**Q.** For EASNCFAIRHFENKFAVETLICFCLHVSGCRSMA, which amyloid nucleation score is on record?
**A.** The amyloid nucleation score was “inactive”.

**Q.** For EASNCFAIRHFENKFAVETLICVRDGRN, which amyloid nucleation score is on record?
**A.** The amyloid nucleation score was -0.0385.

**Q.** For EASNCFAIRHFENKFAVETLICYQMRAFQWSRAY, which amyloid nucleation score is on record?
**A.** The amyloid nucleation score was 0.087.

**Q.** For EASNCFAIRHFENKFAVETLICVLE, which amyloid nucleation score is on record?
**A.** The amyloid nucleation score was “inactive”.

**Q.** With EASNCFAIRHFENKFAVETLICGSYLGGWCQVWR as the sequence, how does the amyloid nucleation score read?
**A.** Its amyloid nucleation score is 1.01.

**Q.** With EASNCFAIRHFENKFAVETLICVLTWQV as the sequence, how does the amyloid nucleation score read?
**A.** The amyloid nucleation score was “inactive”.

**Q.** For EASNCFAIRHFENKFAVETLICYQMDECPHLRNE, which amyloid nucleation score is on record?
**A.** The amyloid nucleation score was “inactive”.

**Q.** Which amyloid nucleation score does the source give for EASNCFAIRHFENKFAVETLICFHRVDLKVFSDR here?
**A.** Its amyloid nucleation score is -0.163.

**Q.** With EASNCFAIRHFENKFAVETLICFREAWSCALRGL as the sequence, how does the amyloid nucleation score read?
**A.** Its amyloid nucleation score is “inactive”.

**Q.** With EASNCFAIRHFENKFAVETLICYHSDYRKYLFMW as the sequence, how does the amyloid nucleation score read?
**A.** The amyloid nucleation score was 1.24.

**Q.** For EASNCFAIRHFENKFAVETLICLSVATRIYYLDR, which amyloid nucleation score is on record?
**A.** The amyloid nucleation score was “inactive”.

**Q.** For EASNCFAIRHFENKFAVETLICDLMED, which amyloid nucleation score is on record?
**A.** The amyloid nucleation score was “inactive”.

**Q.** For EASNCFAIRHFENKFAVETLICRHSPMYRKDLGL, which amyloid nucleation score is on record?
**A.** Its amyloid nucleation score is -0.813.

**Q.** For EASNCFAIRHFENKFAVETLICVSG, which amyloid nucleation score is on record?
**A.** Its amyloid nucleation score is “inactive”.

**Q.** For EASNCFAIRHFENKFAVETLICVSMPGDRDELVR, which amyloid nucleation score is on record?
**A.** Its amyloid nucleation score is “inactive”.

**Q.** With EASNCFAIRHFENKFAVETLICVGKVDDVDTRGR as the sequence, how does the amyloid nucleation score read?
**A.** Its amyloid nucleation score is 0.636.

**Q.** For EASNCFAIRHFENKFAVETLICGAVSFTMNGCFR, which amyloid nucleation score is on record?
**A.** The amyloid nucleation score was 6.78.

**Q.** For EASNCFAIRHFENKFAVETLICLWKSGSQHVFVM, which amyloid nucleation score is on record?
**A.** The amyloid nucleation score was 0.498.

Same assay, conditions: random library (experiment): 2

**Q.** Which amyloid nucleation score does the source give for EASNCFAIRHFENKFAVETLICMCLVIWPVRDDV here?
**A.** The amyloid nucleation score was -0.489.

**Q.** For EASNCFAIRHFENKFAVETLICTGSQTNSCFYYT, which amyloid nucleation score is on record?
**A.** The amyloid nucleation score was 3.53.

**Q.** With EASNCFAIRHFENKFAVETLICKFNILNSDCPFF as the sequence, how does the amyloid nucleation score read?
**A.** The amyloid nucleation score was 2.43.
